This note sets out measurements from publication PMC8481267.

Sequences of proteins named here, by UniProt entry; tags and fusion partners are left off. A change or cut given only in a name is not applied to a line headed by its entry. A line that says so, or that is headed by a name, gives the form on record, which may keep a tag or linker. Residues count along the entry.
UniProt Q14258: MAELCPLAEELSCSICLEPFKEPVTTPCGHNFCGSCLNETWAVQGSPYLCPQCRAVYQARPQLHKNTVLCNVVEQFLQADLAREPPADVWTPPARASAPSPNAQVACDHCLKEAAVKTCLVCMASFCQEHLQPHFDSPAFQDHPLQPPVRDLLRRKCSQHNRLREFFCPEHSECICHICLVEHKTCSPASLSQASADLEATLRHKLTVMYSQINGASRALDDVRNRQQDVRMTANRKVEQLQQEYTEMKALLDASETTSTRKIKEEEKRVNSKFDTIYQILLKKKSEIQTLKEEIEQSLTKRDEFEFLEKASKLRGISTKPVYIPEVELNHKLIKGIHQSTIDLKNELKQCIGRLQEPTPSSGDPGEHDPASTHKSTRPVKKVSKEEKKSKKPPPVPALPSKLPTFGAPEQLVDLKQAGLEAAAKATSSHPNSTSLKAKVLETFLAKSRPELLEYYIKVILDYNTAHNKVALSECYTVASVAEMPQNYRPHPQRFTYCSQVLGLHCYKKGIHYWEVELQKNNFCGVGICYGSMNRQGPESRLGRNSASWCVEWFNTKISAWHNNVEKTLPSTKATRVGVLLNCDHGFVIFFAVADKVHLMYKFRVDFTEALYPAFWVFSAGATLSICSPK
His-tagged TRIM25 with the SPRY domain deleted: residues 1-388 of Q14258
UniProt Q9Y572: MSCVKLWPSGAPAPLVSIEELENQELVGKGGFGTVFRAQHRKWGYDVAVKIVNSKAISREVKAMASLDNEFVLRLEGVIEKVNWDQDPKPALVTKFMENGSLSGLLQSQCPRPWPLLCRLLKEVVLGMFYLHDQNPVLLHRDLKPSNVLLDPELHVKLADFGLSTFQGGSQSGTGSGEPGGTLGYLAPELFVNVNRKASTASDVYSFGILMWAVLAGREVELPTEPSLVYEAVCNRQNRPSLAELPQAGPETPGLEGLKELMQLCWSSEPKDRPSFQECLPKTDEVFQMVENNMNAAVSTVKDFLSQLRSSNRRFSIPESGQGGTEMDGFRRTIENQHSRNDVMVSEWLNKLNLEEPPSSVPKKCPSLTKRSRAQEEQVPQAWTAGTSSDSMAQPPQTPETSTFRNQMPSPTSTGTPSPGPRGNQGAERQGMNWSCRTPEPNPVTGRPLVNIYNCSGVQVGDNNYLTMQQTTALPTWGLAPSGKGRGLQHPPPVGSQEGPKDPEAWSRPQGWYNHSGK
GFP-tagged RIP3 kinase domain: residues 21-287 of Q9Y572
UniProt Q13546: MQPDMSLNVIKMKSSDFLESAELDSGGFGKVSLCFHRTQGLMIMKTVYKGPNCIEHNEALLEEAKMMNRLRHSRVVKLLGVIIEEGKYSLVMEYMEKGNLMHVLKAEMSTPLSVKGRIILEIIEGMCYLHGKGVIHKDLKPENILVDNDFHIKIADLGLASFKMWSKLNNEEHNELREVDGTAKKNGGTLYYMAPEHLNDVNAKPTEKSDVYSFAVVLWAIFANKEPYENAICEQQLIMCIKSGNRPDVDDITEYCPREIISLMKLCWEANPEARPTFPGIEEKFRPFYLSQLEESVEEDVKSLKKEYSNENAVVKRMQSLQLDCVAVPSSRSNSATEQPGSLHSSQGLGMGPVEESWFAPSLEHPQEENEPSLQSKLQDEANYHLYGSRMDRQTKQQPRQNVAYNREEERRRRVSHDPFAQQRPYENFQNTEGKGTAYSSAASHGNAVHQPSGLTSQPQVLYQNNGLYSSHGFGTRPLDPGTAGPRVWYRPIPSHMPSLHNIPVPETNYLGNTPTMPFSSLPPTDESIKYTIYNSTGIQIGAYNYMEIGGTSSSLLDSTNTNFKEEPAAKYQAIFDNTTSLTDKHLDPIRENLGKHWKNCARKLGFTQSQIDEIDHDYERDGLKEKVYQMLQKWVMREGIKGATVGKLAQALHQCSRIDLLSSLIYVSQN

Where two headings read alike, the source gives them in different places. No constants are given. Whether binding was seen depends on the method and setting. Binding seen in cells or lysates may run through a third protein. Some results given as binding are weak or reduced against the parent protein; the word gives no strength.

The target of experiment [1] is His-tagged TRIM25 with the SPRY domain deleted (human) (UniProt Q14258). The experiment can be described thus: co-IP; His-tagged TRIM25 or its mutants and GFP-tagged RIP3 co-transfected into HeLa cells; lysates immunoprecipitated with an anti-His antibody.
The target in experiment [2] is His-tagged TRIM25 (human) (UniProt Q14258). Described as above.
For experiment [3], the target named is FLAG-tagged RIP3 (human) (UniProt Q9Y572). The experiment can be described thus: co-IP; FLAG-tagged RIP3 co-transfected with Myc-tagged TRIM25 or TRIM25^CS into HeLa cells, treated with 10 uM MG132; the precipitating antibody is not stated.
The target in experiment [4] is endogenous TRIM25 (human (endogenous in HeLa, HEK293T, HT-29)) (UniProt Q14258). Kind of experiment: co-IP; endogenous proteins in HT-29 cells; immunoprecipitation with TRIM25 or RIP3 antibodies; untreated or primed with TNF/Z-VAD/Smac-mimetic (TSZ) for indicated hours (6 h in Fig. 1g); IP buffer 1% NP-40, 150 mM NaCl, 1 mM EDTA, 50 mM Tris-HCl pH 7.5.
In experiment [5] the target is GFP-tagged RIP3 kinase domain (human) (UniProt Q9Y572). The experiment can be described thus: co-IP; GFP-tagged RIP3 or its mutants transfected into HEK293T cells; lysates immunoprecipitated with an anti-GFP antibody.
Experiment [6] addresses GFP-tagged RIP3 (full-length) (human) (UniProt Q9Y572). Described as above.
Experiment [7] has as its target FLAG-tagged RIP3 (human) (UniProt Q9Y572). The experiment can be described thus: co-IP; FLAG-tagged RIP3 transfected into HeLa and HEK293T cells; immunoprecipitation with the RIP3 antibody, blot with TRIM25 and RIP3 antibodies; IP buffer 1% NP-40, 150 mM NaCl, 1 mM EDTA, 50 mM Tris-HCl pH 7.5, overnight at 4 °C.
For experiment [8], the target named is endogenous TRIM25 (human (endogenous in HeLa, HEK293T, HT-29)) (UniProt Q14258). The experiment can be described thus: co-IP; endogenous proteins in HT-29 cells; immunoprecipitation with TRIM25 or RIP3 antibodies; untreated or primed with TNF/Z-VAD/Smac-mimetic (TSZ) for indicated hours (6 h in Fig. 1g); IP buffer 1% NP-40, 150 mM NaCl, 1 mM EDTA, 50 mM Tris-HCl pH 7.5. This is another data set of the same source.

On to “GFP-tagged RIP3 (full-length) (from UniProt Q9Y572 1-518)”, for which the figures for the binding entry in experiment [1] and in experiment [2] were “no binding” and “binds”, respectively. Regarding “Myc-tagged TRIM25 (from UniProt Q14258 1-630)”, in the experiment with FLAG-tagged RIP3 (human) [3], the binding entry is “binds”. In the case of “Myc-tagged TRIM25 C50S/C53S (from UniProt Q14258 1-630)”, in the experiment with FLAG-tagged RIP3 (human) [3], the binding result is on record as “binds”. As to “endogenous RIP1 (from UniProt Q13546 1-671)”, in experiment [4], the binding entry is recorded as “no binding”. Same read-out and setting: for “endogenous RIP3 (from UniProt Q9Y572 1-518)” the value was “binds”. Turning to “endogenous TRIM25 (from UniProt Q14258 1-630)”, the figures for the binding entry (in experiment [5]; in experiment [6]; with FLAG-tagged RIP3 (human) [7]) were “no binding”, “binds” and “binds”, respectively.

B1: endogenous MLKL (protein, UniProt Q8NB16 1-471)
chain: MENLKHIITLGQVIHKRCEEMKYCKKQCRRLGHRVLGLIKPLEMLQDQGKRSVPSEKLTTAMNRFKAALEEANGEIEKFSNRSNICRFLTASQDKILFKDVNRKLSDVWKELSLLLQVEQRMPVSPISQGASWAQEDQQDADEDRRAFQMLRRDNEKIEASLRRLEINMKEIKETLRQYLPPKCMQEIPQEQIKEIKKEQLSGSPWILLRENEVSTLYKGEYHRAPVAIKVFKKLQAGSIAIVRQTFNKEIKTMKKFESPNILRIFGICIDETVTPPQFSIVMEYCELGTLRELLDREKDLTLGKRMVLVLGAARGLYRLHHSEAPELHGKIRSSNFLVTQGYQVKLAGFELRKTQTSMSLGTTREKTDRVKSTAYLSPQELEDVFYQYDVKSEIYSFGIVLWEIATGDIPFQGCNSEKIRKLVAVKRQQEPLGEDCPSELREIIDECRAHDPSVRPSVDEILKKLSTFSK
B1: in experiment [8], the binding entry was “no binding”.
